Reference: PubChem BioAssay AID504444 (National Center for Advancing Translational Sciences (NCATS), 2011)
The campaign covered roughly 360,000 compounds. About 7,500 (2.1%) were called active. Another 20% or so got no clear call; they are omitted. Calls follow the shape of the dose curve; as a rule, active = well fitted inhibition curve with a large enough effect; inconclusive = small, poorly fitted or top-dose-only effect, or effect the other way; inactive = flat fitted curve, though single readings scatter. This is a selection; strong and weak results do not stand in their true shares. More than one record can exist for a structure, and the calls need not agree.

Experiment: Nrf2 qHTS screen for inhibitors; also: nearly all actives have a fitted effect of over 60% in size
Conditions: A549 ARE-Fluc reporter, luciferase luminescence, 18-24 h; series mostly up to 46 µM; activity change, negative = inhibition: at the top concentration
Outline: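 Reporter: ARE-Fluc in A549. Exposure: 18-24 h, 37 °C, 5% CO2, 5% FBS OPTI-MEM. Readouts: fluorescent cytotoxicity (CellTiter-Fluor), then luminescent Nrf2 signal after BugLite.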
% is scaled to controls: 0 for no effect and ±100 for the full control effect; potency is read from the fitted curve at half-maximal effect.

Compound | activity change, negative = inhibition | Potency
Cc1ccc(C)c(OCCn2c(CCNC(=O)C3CCCCC3)nc3ccccc32)c1 | inactive: 17% | –
C=CC[C@H](CC(=O)N(CCO)Cc1ccccc1)C(=O)NCCOC(=O)[C@H](CC=C)CC(=O)OC(C)(C)C | inactive: -12.6% | –
COc1ccc(CC(=O)Nc2cccc(-c3ccc4nncn4n3)c2)cc1OC | – | active: 20.6 µM
CSc1ccc(CCNC(=O)CN2C(=O)c3cccnc3Oc3ccc(C)cc32)cc1 | inactive: -16.4% | –
COC(=O)c1cc2occc2n1Cc1cccc(C)c1 | inactive: -1.97% | –
CC(=O)C[C@@H](O)CC(=O)[C@H]1OC(=O)[C@@H](C)C/C=C\Cc2ccccc21 | inactive: 8.88% | –
COc1cccc(C2c3c(ncn(-c4ccccc4)c3=N)Oc3ccc4ccccc4c32)c1 (stereo not drawn) | inactive: 5.57% | –
COC(=O)c1cc(-c2ccc(OC)c(OC)c2)c2c(=O)[nH]c(=O)n(C)c2n1 | inactive: -23.6% | –
Cc1c(C)n(C)c2ccc(C(=O)N3CCN(c4ccccc4)CC3)cc12 | inactive: -12.1% | –
O=C1N[C@@H](c2ccccc2)COC(=O)[C@H](Cc2ccc(F)cc2)C/C=C\C[C@H]1CC(=O)N(CCO)Cc1ccccc1 | inactive: -3.31% | –
O=C(CNC(=O)C1CCCCC1)OC(C(=O)c1ccccc1)c1ccccc1 (stereo not drawn) | inactive: -1.29% | –
COC(C[C@H]1O[C@@H]1[C@@H](O)[C@H](C)OCc1ccccc1)OC | inactive: -0.0905% | –
Cc1ccccc1NS(=O)(=O)c1nnc(NC(=O)c2ccccc2C)s1 | inactive: -14.4% | –
Cc1csc(=Nc2c(C)n(C)n(-c3ccccc3)c2=O)n1Cc1ccccc1 | inactive: -0.884% | –
CCOC(=O)[C@@H]1[C@H]2COc3cc(OC)ccc3[C@H]2N2C(=O)N(c3ccc(C(F)(F)F)cc3)C(=O)[C@@]12C | inactive: 0.664% | –
C[C@H]1NC(=O)[C@@]2(C)[C@@H](c3ccccc3)[C@H]3COc4ccccc4[C@@H]3N2C1=O | inactive: -3.46% | –
Cc1cccc(Nc2nnc(SCC(O)=C(C#N)c3nc4ccccc4[nH]3)s2)c1 | inactive: -10.6% | –
CC1CN(C(=O)c2ccc(S(=O)(=O)Nc3cccc(C(F)(F)F)c3)cc2)CC(C)O1 (stereo not drawn) | – | active: 13 µM
COc1cc(NC(=O)Cn2c(=O)n(CC3CCCO3)c(=O)c3ccccc32)cc(OC)c1 (stereo not drawn) | inactive: -0.0465% | –
CCOc1ccc(CCNc2nc3ccccc3n3c(C)nnc23)cc1OCC | inactive: 11.5% | –
Cc1cccc(C(=O)N[C@H](C(=O)Nc2cccc(S(=O)(=O)N3CCCC3)c2)C(C)C)c1 | inactive: -11.9% | –
Cc1ccc(/C=C\c2nccc3c2[nH]c2ccccc23)cc1 | inactive: 11.7% | –

Compound | activity change, negative = inhibition | Potency
Cc1ccc(/C=C2/SC(=S)N(CCCC(=O)Nc3ccc(O)cc3)C2=O)cc1 | – | active: 9.2 µM
O=C(COc1ccccc1Br)NCCc1nc2ccccc2[nH]1 | inactive: 3.86% | –
COc1cc(CC(=O)Nc2cccc(S(=O)(=O)N(C)c3ccccc3)c2)cc(OC)c1OC | – | active: 14.6 µM
COc1ccc(NCC(=O)Nc2cccc(S(=O)(=O)N3CCCC3)c2)cc1Cl | – | active: 18.4 µM
CCCc1ccc(-c2ccc(/C=C/C(=O)O)cc2)nc1 | – | active: 0.0366 µM
Cc1cccc(N2CCN(C(=O)CSCc3c(C)noc3C)CC2)c1C | – | active: 1.84 µM
Fc1ccc(Nc2c(-c3ccco3)nc3ccccn23)cc1 | inactive: 26.1% [at 9.27 µM] | –
O=[N+]([O-])/C(C(Cl)=C(Cl)Cl)=C(/Sc1ccccc1)N1CCCCC1 | inactive: -11.1% | –
C[C@@H]1CCC[C@@]2(O[C@H](CCO)C[C@@H](O)[C@@H]2O)O1 | inactive: 11% | –
C[C@H]1c2cccc(O)c2C(O)=C2C(=O)[C@]3(O)C(O)=C(C(N)=O)C(=O)[C@@H](N(C)C)[C@@H]3[C@@H](O)[C@@H]21 | inactive: -17.7% | –
COc1cc(C(CC(=O)Nc2ncccc2C)N2Cc3ccccc3C2=O)cc(OC)c1OC (stereo not drawn) | inactive: -18.7% | –
CCOC(=O)C(=Cc1cc(=O)c(OC)co1)C(=O)OCC | – | active: 9.2 µM
O=C(c1ccco1)N1CCN(C(=O)c2cnn(-c3cccc(F)c3)c2C2CCNCC2)CC1 | inactive: 1.41% | –
CC1(C)OC(c2ccccc2)=C/C(=C\C=N\NC(=O)c2ccncc2)O1 | inactive: -8.78% | –
COc1ccc(/C=C(/NC(=O)c2ccccc2)C(=O)N/N=C/c2sccc2C)cc1 | inactive: 1.23% | –
COC(C[C@@H]1O[C@@H]1[C@H](O)[C@H](C)OCc1ccccc1)OC | inactive: 5.1% | –
O=C(Nc1ccccc1)C1=C[C@H](c2csc3ccccc23)C[C@H](OCc2ccc(CO)cc2)O1 | inactive: -29.1% | –
COc1ccc(OC)c(CCNC(=O)Cn2nc(C)c3c(C)n(-c4ccc(C)cc4)nc3c2=O)c1 | – | active: 10.3 µM
C=CC[C@@H](CC(=O)N[C@H](CO)Cc1ccccc1)C(=O)N[C@@H](COC(=O)[C@@H](CC=C)Cc1ccc(F)cc1)Cc1c[nH]c2ccccc12 | inactive: 5.43% | –
COc1cc(/C=C(\C#N)c2nc3ccccc3[nH]2)ccc1OC(=O)c1ccco1 | inactive: 26.3% | –
Cc1cc(/N=C/C=C2/N(C)c3ccccc3C2(C)C)n(CCC#N)n1 | inactive: -21.1% | –
COc1ccc(C(=O)Nc2nnc(S(=O)(=O)N3CCOCC3)s2)cc1 | inactive: 0.0485% | –

Compound | activity change, negative = inhibition | Potency
Cc1ccc(NC(=O)CCC(=O)N2CCOc3ccccc32)c(Cl)c1 | inactive: -5.59% | –
Nc1cc2c3c(cccc3c1)C(=O)N(CCN1CCCC1)C2=O | – | active: 13 µM
CCOC(=O)c1c(C)nc2c(c1-c1ccccc1)C(=O)c1ccccc1-2 | – | active: 13 µM
O=C(Nc1nnc(S(=O)(=O)N2CCOCC2)s1)c1ccccc1Cl | inactive: -0.551% | –
COCCCNc1nc2cc(OC)c(OC)cc2c2nc(-c3ccccc3)nn12 | inactive: -4.74% | –
CC(C)(C)NC(=O)CSc1nc2ccc(NC(=O)CSc3nnnn3Cc3ccccc3)cc2s1 | – | active: 8.2 µM
Cc1ccc(C(=O)N(C)CCOc2ccccc2)cc1S(=O)(=O)N1CCCCC1 | – | active: 20.6 µM
O=C(N/C(=C\c1ccc([N+](=O)[O-])cc1)C(=O)N1CCOCC1)c1ccco1 | inactive: 6.63% | –
CC1CCCCN1CCCNC(=O)Cn1ncc2c([nH]c3ccccc32)c1=O (stereo not drawn) | inactive: 5.17% | –
Cc1cc(C)cc(N(CC(=O)NC2CCCCC2)C(=O)CCCC(=O)Nc2ccccn2)c1 | – | active: 20.6 µM
Brc1cc(Br)c2ncnc(N3CCCCC3)c2c1 | – | active: 25.9 µM
Cc1ccc(-c2ccc(=O)n(Cc3cc(C)ccc3C)n2)cc1 | inactive: -18.3% | –
CCOC(=O)/C=c1/s/c(=C\c2c(OC)ccc3ccccc23)c(=O)n1CC(=O)NCC1CCCO1 (stereo not drawn) | inactive: 1.97% | –
CCCCOc1ccccc1C(=O)N(Cc1ccc(C)o1)C1CCS(=O)(=O)C1 (stereo not drawn) | inactive: 24.2% | –
CCOc1ccc(NC(=O)Cn2c(=O)cc(C)c3c(C)nn(C)c32)cc1 | – | active: 13 µM
Cc1ccccc1S(=O)(=O)Cc1ccc(C(=O)NCCc2ccccc2)o1 | inactive: 4.58% | –
O=C1c2ccccc2C(=O)c2cc(S(=O)(=O)Nc3cccc4cccnc34)ccc21 | – | active: 5.17 µM
C#C[C@]1(O)CC[C@H]2[C@@H]3CCC4=Cc5oncc5C[C@]4(C)[C@H]3CC[C@@]21C | inactive: 17.4% | –
O=C(Nc1ccccc1)C1=C[C@H](c2ccc(Br)cc2)C[C@H](OCc2ccc(CO)cc2)O1 | inactive: -20.7% | –
CC(C)(C)[C@H]1COC(=O)[C@@H](NC(=O)OCC2c3ccccc3-c3ccccc32)C/C=C\C[C@@H](CC(=O)N[C@@H](CO)Cc2ccccc2)C(=O)N1 | inactive: -11.1% | –
CC(C)(C)OC(=O)COc1cc(OCC(=O)OC(C)(C)C)c2c(=O)cc(-c3ccccc3)oc2c1 | – | active: 23.1 µM
O=C(NC1CC1)C1=C[C@H](c2c[nH]c3ccccc23)C[C@H](OCc2ccc(CO)cc2)O1 | inactive: 5.36% | –

Compound | activity change, negative = inhibition | Potency
COc1ccccc1C(=O)Nc1cc(-c2ccc(C)cc2)no1 | inactive: 23.9% | –
O=C(Nc1ccc(S(=O)(=O)N2CCCCC2)cc1)c1ccc(CN2CCOCC2)cc1 | – | active: 4.61 µM
CC(NC(=O)c1ccccc1Cl)C(=O)OCc1cn2cc(Cl)ccc2n1 (stereo not drawn) | inactive: 10.2% | –
CCOC(=O)C1CCCN(S(=O)(=O)CCNC(=O)c2cccc(OC)c2)C1 (stereo not drawn) | – | active: 18.4 µM
C[C@@H](C(=O)Nc1ccc2ccccc2c1)[C@@H]1C[C@@]1(C)[C@@H](NC(=O)OCc1ccccc1)c1ccccc1 | inactive: 8.52% | –
Cn1c(=O)c(=O)n(C)c2cc(S(=O)(=O)N3CCN(c4ccccc4F)CC3)ccc21 | inactive: -20.2% | –
O=S1(=O)[C@H]2CC3O[C@]2(C[C@@H]3c2ccc(F)cc2)CN1Cc1ccc(Cl)cc1 | inactive: -12.3% | –
C[C@H]1CC[C@]2(O[C@@H](CCO)C[C@@H](O)[C@@H]2O)O1 | inactive: -4.69% | –
N#C/C(=C(/O)CN1CCN(c2ccccc2F)CC1)c1nc(-c2ccccc2)cs1 | inactive: -24.4% | –
O=C1NC(=S)N/C1=C/c1cccnc1 | inactive: -22.2% | –
CCOc1ccc(NC(=O)NCCN2CCN(c3ccccc3F)CC2)cc1 | inactive: -3.16% | –
CC(C)CCN(C(=O)c1csnn1)C(C(=O)NC1CCCC1)c1ccc(F)cc1 (stereo not drawn) | – | active: 23.1 µM
C=CC[C@H](CC(=O)N[C@H](CO)Cc1ccccc1)C(=O)N[C@@H](COC(=O)[C@@H](CC=C)Cc1ccc(F)cc1)Cc1c[nH]c2ccccc12 | inactive: -9.5% | –
C=CCC[C@@H](Cc1ccc(F)cc1)C(=O)OC[C@H](Cc1c[nH]c2ccccc12)NC(=O)[C@@H](CC=C)CC(=O)N[C@@H](CO)Cc1ccccc1 | inactive: -14.1% | –
Cc1ccc(-c2csc3n[nH]c(=S)n23)cc1 | inactive: -10.8% | –
Cc1nnsc1C(=O)NC1CCCc2c1cnn2-c1ccc(C(C)(C)C)cc1 (stereo not drawn) | – | active: 2.06 µM
Cn1cccc1C(=O)NC(=O)COC(=O)c1ccc(S(C)(=O)=O)c([N+](=O)[O-])c1 | inactive: 2.7% | –
CN1CCN(C(=O)/C(=C\c2cccnc2)NC(=O)c2cccc(Br)c2)CC1 | inactive: -2.88% | –
CN1CCN(Cc2nc3ccccc3c(=O)n2Cc2nc(-c3ccc4ccccc4c3)cs2)CC1 | inactive: 3.26% | –
C[C@H]1CC[C@]2(O[C@H](CCO)C[C@@H](O)[C@@H]2O)O1 | inactive: -25.6% | –
O=C(CSc1nc2ccccc2c(=O)n1CCCN1CCOCC1)Nc1cccc(S(=O)(=O)N2CCCCCC2)c1 | – | active: 23.1 µM
COc1nc(-c2ccc(C)cc2)ccc1-c1noc(-c2cccnc2)n1 | inactive: -23.4% | –
